Measurements taken from PubChem BioAssay AID1963449 (Molecular Pharmacology Branch, DTP, NCI, 2024).
The source holds more than one record for some entries. The list is limited to them. The source may hold further records. Results that share an entry are repeats across runs, samples, wells, individuals or studies.

Tested on: 596521-263-R-J1-PDC complex spheroid growth
Experiment: Anticancer human tumor 596521-263-R-J1-PDC patient-derived soft tissue sarcoma cell line growth inhibition [Asc]
Settings: for IC50: compound alone; for viability, T/C: stronger effect = lower value
Experimental: Multicellular complex tumor spheroid response to apoptosis pathway targeting inhibitors Alrizomadlin, Pelcitoclax, and Dasminapant in combination with a variety of drugs and investigational agents in selected tumor cell lines
The MDM2 inhibitor alrizomadlin, the Bcl-2/Bcl-xL inhibitor pelcitoclax, and the IAPs inhibitor dasminapant were evaluated both individually and in combination with standard of care and investigational anticancer small molecules within a complex spheroid model of solid tumors. . Complex spheroids include a stromal component modeled by human endothelial cells (HUVEC) and fibroblasts modeled by human mesenchymal stem cells (MSCs). The concentration ranges selected for each drug and investigational agent were based upon clinically achievable concentrations if the clinical Cmax of the agent was known.
Compounds. The drugs and investigational agents: alrizomadlin (APG-115; NSC831270), pelcitoclax (APG-1252; NSC835773), dasminapant (APG-1387;NSC834197), TAK-243 (NSC785004), copanlisib (NSC809693), olaparib (NSC753686), talazoparib (NSC767125), cobimetinib (NSC 768068), eltanexor (KPT-8602, NSC 794443), abemaciclib (NSC 768073), sotorasib (NSC818433), adagrasib (NSC 831453), MRTX-1133 (NSC 836407), Iadademestat (ORY1001, NSC 806812), and RMC-4630 (NSC839698), were obtained from the NCI Developmental Therapeutics Program Chemical Repository. The FDA-approved anticancer drug set is available from the Developmental Therapeutics Program at https://dtp.cancer.gov/organization/dscb/obtaining/available plates.htm. […] The stock solutions were prepared in dimethyl sulfoxide (DMSO, Sigma-Aldrich, St. Louis, MO, cat. D2650) at 800-fold the tested concentration and stored at -70 degrees C prior to their use. All drugs and investigational agents were tested over a range starting from a high concentration at or near the clinical Cmax and decreasing in half-log increments. If the clinical Cmax for an agent had not been determined, the highest concentration tested was 10 microM.
The patient-derived cancer (PDC) cell lines include five colon adenocarcinomas: 186277-243-T-J2-PDC, 616215-338-R-J1-PDC, 439559-082-T-J2-PDC, 463943-066-T-J2-PDC, and 519858-162-T-J1-PDC; three pancreatic carcinomas: 323965-272-R-J2-PDC, 521955-158-R6-J3-PDC, and 521955-158-R2-J5-PDC; two uterine sarcomas: 327498-152-R-J2-PDC and 993429-296-R-J1-PDC; two rhabdomyosarcomas: 755483-174-R-J1-PDC and 772245-204-R-J1-PDC; two soft tissue sarcomas: 126254-015-R-J1-PDC and 494315-158-R-J1-PDC; two malignant fibrous histiocytomas: 317291-083-R-J1-PDC and 596521-263-R-J1-PDC; two breast carcinomas: 171881-019-R-J1-PDC and 885512-296-R-J2-PDC; and one ovarian carcinoma: 6556581-035-R-J-PDC were obtained from the NCI PDMR, (https://pdmr.cancer.gov). The established cell lines HSSY-2 synovial sarcoma (RRID:CVCL 8719), SYO-1 synovial sarcoma (RRID:CVCL_7146), MPNST malignant peripheral neural sheath tumor were obtained from the Sloan Kettering Institute. […]
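Further: spheroids exposed to compounds for 7 days.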

Row | SMILES | IC50 | viability, T/C (compound alone 0.00316 µM) | viability, T/C (compound alone 0.01 µM) | viability, T/C (compound alone 0.316 µM) | IC50 (drug combinations, run of 11/15/2022)
1 | NC(=O)C(=Cn1cnc(-c2cc(C(F)(F)F)cc(C(F)(F)F)c2)n1)c1cncnc1 | 30.6 nM, 37 nM, < 0.949 nM |  |  |  | 
2 | CNC(C)C(=O)NC1CN(S(=O)(=O)c2cccc(S(=O)(=O)N3CCC4CCC(C(=O)NC(c5ccccc5)c5ccccc5)N4C(=O)C(NC(=O)C(C)NC)C3)c2)CCC2CCC(C(=O)NC(c3ccccc3)c3ccccc3)N2C1=O (stereo not given) |  | 92.7, 98.4, 16.4, 80.9, 108, 98% | 86.8, 95.2, 70.1, 83.7, 112, 89.4% | 77.6, 90.1, 82.5, 71.3, 104, 91% | < 3.16 nM and > 1 µM
